Reference: patent publication US9487558B2, “Short bio-active peptides for promoting wound healing” (HELIX BIOMEDIX, INC., priority 2013, dated 2016)
Part of at least one peptide drawing is inferred or uncertain, most often the ends. Marks after values point to notes of the source that are not given here. Some compounds share one wording; it may come from a single statement. Some entries share one result that the patent states for a list of compounds. Some compounds share one range, which may span the group rather than tell each member. Ends that are not written are not given here. Peptide text beside a SMILES is read from it.

Experiments:
Format in all cases: cell-based
[1] = tested on: Human skin keratinocytes (ATCC CRL-2404); experiment: Keratinocyte scratch wound closure; conditions: for Induction of scratch wound closure (in words): in vitro keratinocyte scratch wound test; for Wound closure after 7 hr treatment (%): relative to PBS treated = 100%, peptide 40 μg/ml, * = significant; for Percentage of wound closure compared to PBS treated taken as 100%: concentration between 10 and 20 μg/ml
[2] = tested on: Normal human skin keratinocytes (ATCC CRL-2404); experiment: Keratinocyte proliferation (SRB staining, OD565); conditions: for OD565: 48-72 hr, mean of triplicate; for % to PBS: values over 120 significant (*); for Keratinocyte proliferation activity (in words): all concentrations tested, 0.625 to 5 μg/ml
[3] = tested on: genes encoding wound healing, extracellular matrix and adhesion molecules in EPIDERM skin substitutes; experiment: Gene profiling by PCR array on puncture-wounded EPIDERM skin substitutes; conditions: wounded & treated with HB2235 (330 μg/ml, 24 hours) vs. wounded; up (+) or down (−)

In the case of `CC[C@H](C)[C@H](NC(=O)[C@@H](N)CCCCN)C(=O)N[C@@H](CCC(=O)O)C(=O)N[C@@H](CCCCN)C(=O)O` [HB2232, KIEK] (H-KIEK-OH), the “Induction of scratch wound closure (in words)” value (shortened to “Induction”) [1] is reported as “failed to induce scratch wound closure”, the “Wound closure after 7 hr treatment (%)” value [1] is reported as 100% and the OD565 ([2]; 0.625 μg/ml peptide) is reported as 0.115. For the same compound, the “% to PBS” value ([2]; 0.625 μg/ml peptide) was 102%, the OD565 ([2]; 1.25 μg/ml peptide) was 0.109 and the “% to PBS” value ([2]; 1.25 μg/ml peptide) was 97%. For the same compound, the OD565 ([2]; 2.5 μg/ml peptide) was 0.126, the “% to PBS” value ([2]; 2.5 μg/ml peptide) was 112% and the OD565 ([2]; 5 μg/ml peptide) was 0.102. For the same compound, the “% to PBS” value ([2]; 5 μg/ml peptide) was 91% and the “Keratinocyte proliferation activity (in words)” value [2] was “does not induce keratinocyte proliferation”.

In the case of `CSCC[C@H](NC(=O)[C@H](CCCCN)NC(=O)[C@@H](N)CCC(=O)O)C(=O)NCC(=O)O` [HB2234, EKMG] (H-EKMG-OH), the “Percentage of wound closure compared to PBS treated taken as 100%” value (from here on “Percentage of wound closure … as 100%”) [1] is reported as 182-218%, the “Wound closure after 7 hr treatment (%)” value [1] is reported as 191* % and the OD565 ([2]; 0.625 μg/ml peptide) is reported as 0.151. For the same compound, the “% to PBS” value ([2]; 0.625 μg/ml peptide) was 134* %, the OD565 ([2]; 1.25 μg/ml peptide) was 0.149 and the “% to PBS” value ([2]; 1.25 μg/ml peptide) was 133* %. For the same compound, the OD565 ([2]; 2.5 μg/ml peptide) was 0.143, the “% to PBS” value ([2]; 2.5 μg/ml peptide) was 127* % and the OD565 ([2]; 5 μg/ml peptide) was 0.103. For the same compound, the “% to PBS” value ([2]; 5 μg/ml peptide) was 92%.

For `CSCC[C@H](N)C(=O)NCC(=O)N[C@@H](CCCNC(=N)N)C(=O)N[C@@H](CC(N)=O)C(=O)O` [HB2235, MGRN] (H-MGRN-OH), the “Percentage of wound closure … as 100%” value [1] was 182-218%, the “Wound closure after 7 hr treatment (%)” value [1] was 218* % and the OD565 ([2]; 0.625 μg/ml peptide) was 0.148. The “% to PBS” value ([2]; 0.625 μg/ml peptide) was 132* %, the OD565 ([2]; 1.25 μg/ml peptide) was 0.145 and the “% to PBS” value ([2]; 1.25 μg/ml peptide) was 129* %. For the same compound, the OD565 ([2]; 2.5 μg/ml peptide) was 0.148, the “% to PBS” value ([2]; 2.5 μg/ml peptide) was 132* % and the OD565 ([2]; 5 μg/ml peptide) was 0.126. For the same compound, the “% to PBS” value ([2]; 5 μg/ml peptide) was 112%, the “Fold change COL1A1 (Collagen I, alpha 1)” value [3] was 2.0279 fold and the “Fold change COL3A1 (Collagen III, alpha 1)” value [3] was 1.5369 fold. For the same compound, the “Fold change COL5A1 (Collagen V, alpha 1)” value [3] was 1.1647 fold, the “Fold change COL5A2 (Collagen V, alpha 2)” value [3] was 1.8921 fold and the “Fold change COL5A3 (Collagen V, alpha 3)” value [3] was 6.5887 fold. The “Fold change COL14A1 (Collagen XIV, alpha 1)” value [3] was 1.5369 fold, the “Fold change CSF2 (Granulocyte-macrophage colony stimulating factor 2)” value [3] was −1.6021 fold and the “Fold change CTSL2 (Cathepsin L2)” value [3] was −1.7171 fold. The “Fold change CXCL1 (Chemokine (C—X—C) ligand 1)” value [3] was −1.057 fold, the “Fold change CXCL2 (Chemokine (C—X—C) ligand 2)” value [3] was −1.7171 fold and the “Fold change CXCL5 (Chemokine (C—X—C) ligand 5)” value [3] was −3.9449 fold. The “Fold change EGF (Epidermal growth factor)” value [3] was 1.434 fold, the “Fold change IL6ST (Interleukin 6 signal transducer)” value [3] was 1.5369 fold and the “Fold change IL-1β (Interleukin 1, beta)” value [3] was −1.3947 fold. For the same compound, the “Fold change ITGB3 (Integrin beta 1)” value [3] was 1.5369 fold, the “Fold change MAPK3 (Mitogen-activated protein kinase 3)” value [3] was 1.8921 fold and the “Fold change MMP1 (Matrix metallopeptidase 1)” value [3] was 1.1647 fold. For the same compound, the “Fold change PDGFA (Platelet derived growth factor alpha polypeptide)” value [3] was 1.434 fold, the “Fold change PLAT (Tissue plasminogen activator)” value [3] was 1.2483 fold and the “Fold change PLAU (Urokinase plasminogen activator)” value [3] was −1.1329 fold. For the same compound, the “Fold change PTGS2 (Prostaglandin G/H synthase and cyclooxygenase)” value [3] was −1.7171 fold, the “Fold change SERPINE1 (Serpin peptidase inhibitor, clade E, member 1)” value [3] was −1.4948 fold and the “Fold change TGFB1 (Transforming growth factor-β1)” value [3] was 2.1735 fold. The “Fold change VEGFA (Vascular endothelial growth factor A)” value [3] was 1.1647 fold.

For `CSCC[C@H](NC(=O)[C@@H](N)CCCCN)C(=O)NCC(=O)O` [HB2268, KMG] (H-Lys-Met-Gly-OH), the “Induction” value [1] was “failed to induce scratch wound closure”, the “Wound closure after 7 hr treatment (%)” value [1] was 107% and the OD565 ([2]; 0.625 μg/ml peptide) was 0.103. The “% to PBS” value ([2]; 0.625 μg/ml peptide) was 92%, the OD565 ([2]; 1.25 μg/ml peptide) was 0.113 and the “% to PBS” value ([2]; 1.25 μg/ml peptide) was 101%. The OD565 ([2]; 2.5 μg/ml peptide) was 0.134, the “% to PBS” value ([2]; 2.5 μg/ml peptide) was 119% and the OD565 ([2]; 5 μg/ml peptide) was 0.108. For the same compound, the “% to PBS” value ([2]; 5 μg/ml peptide) was 96% and the “Keratinocyte proliferation activity (in words)” value [2] was “do not seem to show proliferation activity”.

With `N=C(N)NCCC[C@H](NC(=O)CN)C(=O)N[C@@H](CC(N)=O)C(=O)O` [HB2269, GRN] (H-Gly-Arg-Asn-OH) the “Induction” value [1] was “failed to induce scratch wound closure”, the “Wound closure after 7 hr treatment (%)” value [1] was 102% and the OD565 ([2]; 0.625 μg/ml peptide) was 0.104. For the same compound, the “% to PBS” value ([2]; 0.625 μg/ml peptide) was 93%, the OD565 ([2]; 1.25 μg/ml peptide) was 0.099 and the “% to PBS” value ([2]; 1.25 μg/ml peptide) was 88%. For the same compound, the OD565 ([2]; 2.5 μg/ml peptide) was 0.114, the “% to PBS” value ([2]; 2.5 μg/ml peptide) was 102% and the OD565 ([2]; 5 μg/ml peptide) was 0.121. For the same compound, the “% to PBS” value ([2]; 5 μg/ml peptide) was 108% and the “Keratinocyte proliferation activity (in words)” value [2] was “do not seem to show proliferation activity”.

In the case of EKMGR [HB2263, EKMGR], the “Percentage of wound closure … as 100%” value [1] is reported as 182-218%, the “Wound closure after 7 hr treatment (%)” value [1] is reported as 188* % and the OD565 ([2]; 0.625 μg/ml peptide) is reported as 0.137. The “% to PBS” value ([2]; 0.625 μg/ml peptide) was 122* %, the OD565 ([2]; 1.25 μg/ml peptide) was 0.16 and the “% to PBS” value ([2]; 1.25 μg/ml peptide) was 142* %. For the same compound, the OD565 ([2]; 2.5 μg/ml peptide) was 0.154, the “% to PBS” value ([2]; 2.5 μg/ml peptide) was 137* % and the OD565 ([2]; 5 μg/ml peptide) was 0.129. The “% to PBS” value ([2]; 5 μg/ml peptide) was 115%.

With EKMGRN [HB2265, EKMGRN] the “Percentage of wound closure … as 100%” value [1] was 182-218%, the “Wound closure after 7 hr treatment (%)” value [1] was 199* % and the OD565 ([2]; 0.625 μg/ml peptide) was 0.125. The “% to PBS” value ([2]; 0.625 μg/ml peptide) was 111%, the OD565 ([2]; 1.25 μg/ml peptide) was 0.127 and the “% to PBS” value ([2]; 1.25 μg/ml peptide) was 113%. The OD565 ([2]; 2.5 μg/ml peptide) was 0.153, the “% to PBS” value ([2]; 2.5 μg/ml peptide) was 136* % and the OD565 ([2]; 5 μg/ml peptide) was 0.142. For the same compound, the “% to PBS” value ([2]; 5 μg/ml peptide) was 126* %.

GRNIRN [HB1062, GRNIRN] was tested, and the “Induction” value [1] was “unable to promote scratch wound closure” and the “Wound closure after 7 hr treatment (%)” value [1] was 99%.

KMGRN [HB2262, KMGRN] was tested, and the “Percentage of wound closure … as 100%” value [1] was 182-218%, the “Wound closure after 7 hr treatment (%)” value [1] was 182* % and the OD565 ([2]; 0.625 μg/ml peptide) was 0.159. For the same compound, the “% to PBS” value ([2]; 0.625 μg/ml peptide) was 142* %, the OD565 ([2]; 1.25 μg/ml peptide) was 0.159 and the “% to PBS” value ([2]; 1.25 μg/ml peptide) was 142* %. For the same compound, the OD565 ([2]; 2.5 μg/ml peptide) was 0.169, the “% to PBS” value ([2]; 2.5 μg/ml peptide) was 150* % and the OD565 ([2]; 5 μg/ml peptide) was 0.156. The “% to PBS” value ([2]; 5 μg/ml peptide) was 139* %.
